In all, about 48,000 compounds went through this assay and about 1,200 (2.5%) were called active. Roughly 2% stayed inconclusive and do not appear here.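 The calls were made as follows: active = activation of at least 60% and not above a set upper limit (about 1 call in 100 departs from these limits); inconclusive = activation of 40% to 60%, or above that upper limit; inactive = activation under 40%.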 This is one part of the list.

Sequence of UniProt O75388 (O75388 whole entry, looked up, the tested form may be a part): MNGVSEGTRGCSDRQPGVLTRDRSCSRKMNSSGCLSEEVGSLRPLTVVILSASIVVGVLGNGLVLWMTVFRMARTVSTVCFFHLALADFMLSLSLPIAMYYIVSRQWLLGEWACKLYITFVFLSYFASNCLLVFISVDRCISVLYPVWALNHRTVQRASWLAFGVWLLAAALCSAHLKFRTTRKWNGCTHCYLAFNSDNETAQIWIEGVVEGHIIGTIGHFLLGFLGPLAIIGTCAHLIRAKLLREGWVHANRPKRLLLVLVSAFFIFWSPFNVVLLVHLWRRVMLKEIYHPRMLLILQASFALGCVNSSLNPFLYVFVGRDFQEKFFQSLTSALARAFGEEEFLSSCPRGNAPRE

In this test the target is Probable G-protein coupled receptor 32 (Homo sapiens) (UniProt O75388). Nature of the test: qHTS for Agonists of Human Resolvin D1 Receptor DRV1. Also: 0% is about no effect. As to conditions: CHO-K1 GPR32 beta-arrestin PathHunter luminescence, 90 min; at 76.9 µM; stronger effect = higher value; zero percent set by DMSO-only wells. The gist of the method:
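Agonism was scored as beta-arrestin recruitment to ProLink-fused GPR32 in stably transfected CHO-K1 cells, giving a chemiluminescent beta-Gal signal; compounds were incubated 90 min at 37 °C.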
On the technique in general: Quantitative high-throughput screening tests each substance at several concentrations.
Consider `CCc1ccccc1NC(=O)Cn1ncc2c(C)n(Cc3ccccc3F)c(C)c2c1=O`, for which the activation is inactive: -1.84%. Turning to `Cc1ccc(C)c(N2CCN(c3ccc(NC(=O)c4cccs4)cc3C(=O)O)CC2)c1`, the activation was inactive: -11.2%. With `O=C(Cn1c(=O)n(Cc2nc(-c3ccccc3)no2)c(=O)c2cc3c(cc21)OCO3)Nc1ccc(Cl)cc1`, the activation is inactive: 6.92%.

`CC(C)[C@H](N)C(=O)OCCOCn1cnc2c(=O)[nH]c(N)nc21`: the activation was inactive: -7.48%. Consider `CCN(CC)CCCNC(=O)c1c(C)oc2ncn(CC(C)C)c(=O)c12`, for which the activation was inactive: -10.8%. For `Cn1c(=O)n(C)c2cc(NS(=O)(=O)c3ccc(Br)cc3)c(NCc3ccccc3)cc21`, the activation was inactive: 28.4%. With `CCc1ccc(-n2nc(C)c3c(C)cc(=O)n(CC(=O)Nc4ccc(C)c(F)c4)c32)cc1`, the activation was inactive: -0.16%. Turning to `CCOc1ccc(-n2c(=O)c3c(C)c(C)sc3n(CC(=O)c3ccccc3)c2=O)cc1`, the activation was inactive: 5.11%. For the compound `CCCCN(C)S(=O)(=O)c1cc(-c2nnc3c4ccccc4c(C)nn23)ccc1C`, the activation was inactive: 21%. For `CN(C)c1ccc(NC(=O)CCSc2nc(-c3ccco3)cc(C(F)(F)F)n2)cc1`, the activation is inactive: -36.7%. For the compound `COc1cc(Br)c(C2CC(=O)Nc3cc(OC)c(OC)c(OC)c32)cc1OC` (centres undefined), the activation was inactive: -9.21%. With `CC1CCc2c(sc(NC(=O)CCCOc3ccc(C(C)(C)C)cc3)c2C(N)=O)C1` (centres undefined), the activation was inactive: -0.358%. As for `Cc1ccc(CNC(=O)c2ccc(-n3c(C)cc4c3CCCC4)cc2)cc1`, the activation was inactive: -11%. On to `CC1CCN(c2oc(-c3cccs3)nc2S(=O)(=O)c2ccc(Cl)cc2)CC1`, for which the activation is inactive: -6.94%. For `COc1cc(OC)c(NC(=O)CSc2nccn2C)cc1Cl`, the activation is inactive: -24%. Take `COc1ccc2oc(-c3ccc(C)c(NC(=O)c4cccnc4)c3)nc2c1`: the activation is inactive: -8.26%. `O=C(CSc1nc2cc(C(=O)NC3CCCC3)ccc2c(=O)n1CC1CCCO1)c1ccc(F)cc1` (centres undefined): the activation is inactive: 23.9%.

As for `CNC(=O)c1ccc2c(c1)N=C(C)c1cc(C)ccc1S2`, the activation is inactive: 12.3%. Turning to `Cc1ccc(C)c(S(=O)(=O)c2cn(Cc3ccccc3)c3cc(F)c(F)cc3c2=O)c1`, the activation is inactive: -16.6%.

Turning to `Cc1ccc(OCC(=O)Nc2ccc3nc(SCC(=O)N4CCCC4)sc3c2)cc1`, the activation was inactive: -6.43%.

`CCOC(=O)c1c(SCC(=O)Nc2nc3ccc(C)cc3s2)nc(=O)[nH]c1C`: the activation is inactive: 4.3%.

In the case of `CCCC(=O)OC1=CN(Cc2ccccc2)S(=O)(=O)c2ccccc21`, the activation was inactive: -23.4%. For the compound `O=C(Cn1cc(SCc2cccc(F)c2)c2ccccc21)N1CCOCC1`, the activation was inactive: -21.9%. The figure for `CC(C)(C)C1CCc2oc3ccc(NS(=O)(=O)c4cc(Cl)ccc4Cl)cc3c2C1` (centres undefined) is inactive: -34.1%; for `Cc1cc(C)c2sc(N(Cc3cccnc3)C(=O)CCS(=O)(=O)c3ccccc3)nc2c1` it is inactive: -6.03%; for `Cc1cccc(CSc2cn(CC(=O)N3CCCCC3)c3ccccc23)c1` it is inactive: -25.4%.

Consider `O=C(c1cc(-c2ccc(Br)cc2)n[nH]1)N1CCN(S(=O)(=O)c2ccc(Br)cc2)CC1`, for which the activation was inactive: 4.45%. In the case of `CN(C)C(=N)N=C(N)N`, the activation is inactive: -3.99%. On to `CCC(=O)N1N=C(c2ccc(OC)cc2)CC1c1cn(-c2ccccc2)nc1-c1cccs1` (centres undefined), for which the activation was inactive: 3.19%. With `CCOC(=O)c1cnc2ccc(C)cc2c1Nc1ccc(OCc2ccccc2Cl)cc1`, the activation was inactive: -8.49%. For the compound `COc1ccccc1N(CC(=O)NCCSCc1ccccc1Cl)S(C)(=O)=O`, the activation was inactive: 21.1%. Under `CCOc1ccc(N(c2nc(-c3ccc(OC)c(OC)c3)no2)c2nc(-c3ccc(OC)c(OC)c3)no2)cc1` stands inactive: 10.3%; under `O=C(Cn1ccn(-c2ccc(F)cc2)c(=O)c1=O)NCCc1ccccc1`, inactive: -9.2%.

In the case of `CC(=O)N1c2ccc(S(=O)(=O)N3CCN(c4ccc(C)cc4C)CC3)cc2CC1C` (centres undefined), the activation is inactive: 8.13%. The figure for `COC(=O)CSc1nc2c(cnn2-c2ccc(F)cc2)c(=O)[nH]1` is inactive: 5.8%. Turning to `Brc1c(Br)c(Br)c2n[nH]nc2c1Br`, the activation is inactive: 27.8%. `COCC(=O)N1c2nc(C(C)C)nn2C2(CCCCC2)[C@@H]2CCCC[C@@H]21`: the activation is inactive: -20.6%. With `CCOC(=O)c1sc(NC(=O)c2cc(CC)on2)c(C(=O)OCC)c1C`, the activation is inactive: 18.9%. For `Cc1ccc(NS(=O)(=O)c2ccc3[nH]c4c(c3c2)CCCCCC4)cc1Cl`, the activation was inactive: 18.6%. With `CCCOC(=O)c1ccc(NC(=O)Cc2csc(C)n2)cc1`, the activation was inactive: -8.29%.

For the compound `Cc1c(C(=O)NCc2ccccc2)sc2nc3n(c(=O)c12)CCC3`, the activation is inactive: -11.6%. The figure for `CCC(=O)N1CCc2cc(Br)cc(S(=O)(=O)NCc3ccc(Cl)cc3)c21` is inactive: 19.3%; for `Cc1cccc(N2C(=O)CSC23C(=O)N(Cc2cccc(C(F)(F)F)c2)c2ccccc23)c1` (centres undefined) it is inactive: -4.93%. Regarding `CSc1nc2sc3c(c2c(=O)n1-c1ccccc1C)CCCC3`, the activation is inactive: -15.5%. Consider `C=Cc1ccc(CSc2nc(-c3ccccc3Cl)nc3c2Cc2c(CO)cnc(C)c2O3)cc1`, for which the activation was inactive: 15%. As to `Cc1nc(N2CCCC2)c2c(C(=O)N3CCN(c4cccc(Cl)c4)CC3)c(C)oc2n1`, the activation is inactive: -18.1%. As to `COc1ccc(N2CCN(C(=O)c3ccc(CS(=O)(=O)c4ccc(Br)cc4)o3)CC2)cc1`, the activation is inactive: 4.99%.

`Cc1ccc(N2CC(C)Cn3c2nc2c3c(=O)n(CC(=O)O)c(=O)n2C)cc1` (centres undefined): the activation is inactive: -0.544%. For `CCN(c1ccccc1)c1nnc(NC(=O)Nc2cccc(Br)c2)s1`, the activation was inactive: 1.6%. For `Cc1cc(C)cc(-n2ccn(CC(=O)Nc3ccccc3C(F)(F)F)c(=O)c2=O)c1`, the activation was inactive: -17.3%.

Regarding `O=C1CC(c2nc3ccccc3n2CCCOc2ccccc2)CN1c1ccc(F)cc1` (centres undefined), the activation was inactive: 8.97%. The figure for `CN(C)CCNC(=O)CCCN1C(=O)c2cccnc2Oc2ccc(Cl)cc21` is inactive: 1.15%; for `CCN(c1ccc(OC)cc1)S(=O)(=O)c1nnc(NC(=O)c2ccccc2Cl)s1` it is inactive: -4.97%; for `COCCCNC(=O)CSc1c2c(nc3ccc(Cl)cc13)CCCC2` it is inactive: -13%.
